Measurements taken from publication PMC4336329 (PLoS ONE, 2015).
Hit rate of the full screen: of about 310,000 compounds, about 14,000 (4.5%) showed an effect of 50% or more. The effect is printed as a negative number. The list shows a part of the results.

molecular target: human ether-à-go-go-related gene (hERG) potassium channel (human, UniProt Q12809); assay: primary screen, population patch clamp on CHO cells stably expressing hERG
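Also: peak tail current of the secondary pulse compared with the same well before compound.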

human ether-à-go-go-related gene (hERG) potassium channel, sequence (Q12809 whole entry, looked up): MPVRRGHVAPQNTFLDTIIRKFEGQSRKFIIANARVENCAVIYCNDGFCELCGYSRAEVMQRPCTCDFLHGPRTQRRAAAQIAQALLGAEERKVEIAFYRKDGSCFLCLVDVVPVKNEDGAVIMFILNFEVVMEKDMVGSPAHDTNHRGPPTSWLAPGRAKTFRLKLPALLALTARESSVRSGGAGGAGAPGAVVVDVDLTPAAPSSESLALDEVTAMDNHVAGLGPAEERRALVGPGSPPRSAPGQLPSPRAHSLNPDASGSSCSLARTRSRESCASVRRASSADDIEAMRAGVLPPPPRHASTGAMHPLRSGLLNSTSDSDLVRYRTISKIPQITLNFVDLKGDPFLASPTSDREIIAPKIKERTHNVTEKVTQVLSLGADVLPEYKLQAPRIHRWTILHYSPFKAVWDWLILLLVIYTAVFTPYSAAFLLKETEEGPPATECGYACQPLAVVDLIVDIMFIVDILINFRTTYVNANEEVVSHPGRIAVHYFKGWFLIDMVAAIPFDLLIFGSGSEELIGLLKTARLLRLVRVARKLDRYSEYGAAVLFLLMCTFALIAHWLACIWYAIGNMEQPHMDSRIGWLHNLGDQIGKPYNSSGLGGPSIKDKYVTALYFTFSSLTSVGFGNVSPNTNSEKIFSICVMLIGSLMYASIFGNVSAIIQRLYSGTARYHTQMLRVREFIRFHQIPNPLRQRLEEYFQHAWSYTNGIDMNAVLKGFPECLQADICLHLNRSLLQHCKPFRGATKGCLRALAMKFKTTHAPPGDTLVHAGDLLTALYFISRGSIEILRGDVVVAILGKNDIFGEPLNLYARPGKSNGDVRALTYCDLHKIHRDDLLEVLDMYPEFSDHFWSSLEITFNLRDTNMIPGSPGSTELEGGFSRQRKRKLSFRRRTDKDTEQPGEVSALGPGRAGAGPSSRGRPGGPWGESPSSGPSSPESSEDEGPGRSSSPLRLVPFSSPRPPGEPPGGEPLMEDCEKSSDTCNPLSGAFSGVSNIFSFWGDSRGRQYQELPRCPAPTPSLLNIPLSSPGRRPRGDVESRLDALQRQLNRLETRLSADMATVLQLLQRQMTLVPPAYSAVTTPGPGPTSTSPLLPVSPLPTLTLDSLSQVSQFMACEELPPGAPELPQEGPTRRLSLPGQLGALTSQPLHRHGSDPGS

Structure (SMILES) | hERG current change (%, negative = inhibition) at 10uM [%]
O=C1CCC(=O)N1c1cccc(OS(=O)(=O)c2ccccc2)c1 | 1.19
CCOC(=O)C1CCN(C(=O)COc2cccc3ccccc23)CC1 | -2.75
O=C(Cc1cccc(C(F)(F)F)c1)NCC(c1ccco1)N1CCCCC1 (stereo not drawn) | 5.38
c1ccc(OCc2nc3ccccc3[nH]2)cc1 | 6.4
NNC(=O)CN1C(=O)Nc2ccc(Cl)cc2C1c1ccccc1 (stereo not drawn) | 9.01
CCOC(=O)CS(=O)(=O)c1nc(-c2ccc(F)cc2)cc(C(F)(F)F)n1 | -21.3
COc1ccc(NC(=O)c2ccccc2-c2ccc(C(F)(F)F)cc2)cc1S(=O)(=O)N1CCOCC1 | -9.7
Nc1ccc2nc(-c3cccc(-c4nc5ccc(N)cc5[nH]4)n3)[nH]c2c1 | 12.7
CC(C)(O)C#Cc1ccc(CN2CCN(Cc3ccsc3)C(CCO)C2)s1 (stereo not drawn) | -11.1
CCOC(=O)N1CCN(CC(=O)c2ccc3c(c2)CCN3)CC1 | -8.69
S=c1[nH]nc(-c2ccccn2)n1/N=C/c1cccc2ccccc12 | 11
O=C(NCc1ccccc1Cl)C1CCN(C(=O)c2sccc2-n2cccc2)CC1 | 4.44
Cc1ccccc1C1NC(c2ccccc2C)C([N+](=O)[O-])C(C)(C)C1[N+](=O)[O-] (stereo not drawn) | 3.18
O=C(N/N=C/c1ccc(Br)cc1)c1ccc(F)cc1 | 0.487
Cc1cccc2nc(CSc3nnc(N)s3)cn12 | -9.23
COCCNc1nc2c(c(=O)[nH]c(=O)n2C)n1CCCc1ccccc1 | -1.45
COc1ccc(/C=N/NC(=O)c2ccco2)cc1Cn1nc(C)cc1C | -2.47
O=C(NCCCn1ccnc1)c1cccnc1 | -0.137
Cc1cc(C)nc(SCc2ccc(C(=O)N/N=C/c3cccnc3)cc2)n1 | -17.3
CC(C)(C(=O)O)n1cncn1.Cl | 55.8
COc1cc(C(=S)N2CCCC2)ccc1OCc1ccc(C)cc1 | 14
CN(c1ccccc1)S(=O)(=O)c1cccc(NC(=O)CSc2ncn[nH]2)c1 | -36.1
O=C(C[n+]1ccccn1)c1ccccc1.[Br-] | 31.5
C=CCOc1ccc(C2/C(=C(\O)c3ccc4c(c3)OCCO4)C(=O)C(=O)N2CCCN2CCOCC2)cc1 (stereo not drawn) | 17.5
CC(C)(C)N(C=C(Cl)Cl)C(=O)NC1CCCCC1 | 4.83
CCOc1ccc(N2CC(C(=O)N3CC(C)OC(C)C3)CC2=O)cc1 (stereo not drawn) | 20
C#CCOCCOCCOCCNc1nc(N2CCN(C(=O)[C@H](CCC(=O)O)n3cc(C(N)Cc4ccc(O)cc4)nn3)CC2)nc(N2CCN(C(=O)[C@H](CCC(=O)O)n3cc(C(N)Cc4ccc(O)cc4)nn3)CC2)n1.Cl (stereo partly drawn) | 14.3

Structure (SMILES) | hERG current change (%, negative = inhibition) at 10uM [%]
O=C(OCC(=O)N1CCc2ccccc21)c1ccc([N+](=O)[O-])cc1 | 13.2
CN[C@@H]1[C@H](O)[C@H](NC)[C@H]2O[C@@]3(O)C(=O)C[C@@H](C)O[C@H]3O[C@@H]2[C@H]1O.Cl.O | 16.4
CC1Cc2ccccc2N1C(=O)CN1C(=O)COc2ccccc21 (stereo not drawn) | 9.34
CCC1CN(C(=O)NCc2ccc(C)cc2)c2cc(Cl)ccc2O1 (stereo not drawn) | 17.8
Cc1nnc(SCC(=O)N(C)c2ccccc2)n1Cc1ccccc1 | -13.2
CCOC(=O)C1CCN(Cc2ccc(-c3ccccc3)cc2)CC1 | -28.8
O=C(c1ccc(F)cc1)N1CCCC(c2nc(-c3ccncc3)no2)C1 (stereo not drawn) | -65.6
O=C(COC(=O)c1cccc(S(=O)(=O)N2CCOCC2)c1)NCCc1ccccc1 | 3.22
Cn1nc(-c2ccc(Cl)cc2)c2cc(C(=O)NCCCN3CCOCC3)sc21 | -13.1
CCCOc1ccccc1N/C(=N\S(=O)(=O)c1ccc(C)cc1)Nc1nc(C)cc(C)n1 | 26.1
N/C(=N\OCc1ccccc1)c1nonc1N | -1.49
COc1ccc(/C=N/NC(=O)c2c(Br)cnn2C)c2ccccc12 | 4.95
CCOC(=O)c1c(-c2cccc([N+](=O)[O-])c2)cn2ccccc12 | 13.3
Cc1cc(Oc2ccc(Cl)cc2)nc(-c2ccccn2)n1 | -0.301
COc1ccc(COC(=O)C2=C(C)NC(=O)NC2c2ccccc2)cc1 (stereo not drawn) | 5.54
Cc1nc2ccc(C(=O)OCc3nnc(-c4ccc(Br)cc4)o3)cc2nc1C | 15.6
O=C(NCc1ccc2c(c1)OCO2)C1CCC(CNc2c(N3CCCCC3)c(=O)c2=O)CC1 (stereo not drawn) | -6.5
Cc1ccc2occ(/C=N/NC(=O)c3ccccc3O)c(=O)c2c1 | 15.8
CCCOc1ccc(-c2csc3ncn(Cc4ccc(C(=O)O)cc4)c(=O)c23)cc1 | -12.5
CC1CCCN(S(=O)(=O)c2ccc(S(=O)(=O)N3CCCC3)cc2)C1 (stereo not drawn) | 24.7
Cc1ccc(C(=O)N/C(=C/C=C\c2ccccc2)C(=O)NCc2ccco2)cc1 | -27.7
CC(=O)Nc1ccc(OC(=O)Cc2ccc(Cl)cc2)cc1 | -2.26
Cc1cccc(N2CCN(C(=O)c3ccccc3NC(=O)C3=CSCCO3)CC2C)c1 (stereo not drawn) | -2.15
O=C(Nc1ccc(S(=O)(=O)N2CCOCC2)cc1)c1ccc([N+](=O)[O-])cc1Cl | -42
Brc1ccc(-c2ncc3ccccn23)cc1 | -15.9
COc1ccc(-n2ncc3c2CC(C)(C)CC3NC(=O)CN2CCOC2=O)cc1 (stereo not drawn) | -32.9
COc1cc(/C=C(/NC(=O)c2ccccc2)C(=O)N2CCOCC2)c([N+](=O)[O-])cc1OC | -3.92
